The record followed here is PubChem BioAssay AID488969 (Vanderbilt High Throughput Screening Facility, 2010).

In all, about 110,000 compounds were measured (“z-score”: median about -0.1, highest 2% from about 2 on). This is one part of the list. Active and inactive are the calls of the source.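 Rule for the calls: active = z-score in the third read window above 3 or below -3; inactive = the rest.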

The target of this assay is Metabotropic glutamate receptor 8 (Rattus norvegicus) (UniProt P70579). In words: rat mGluR8 modulators via GIRK flux, primary screen, cell-based, thallium flux, HTS (AID 488969). The following applies: HEK293 rat mGluR8, GIRK (G protein-gated inwardly rectifying potassium channel) thallium flux, FluoZin2; at 10 µM; stronger effect = higher value; submaximal glutamate (EC20) added with thallium.
Chain of UniProt P70579 (P70579 whole entry, looked up): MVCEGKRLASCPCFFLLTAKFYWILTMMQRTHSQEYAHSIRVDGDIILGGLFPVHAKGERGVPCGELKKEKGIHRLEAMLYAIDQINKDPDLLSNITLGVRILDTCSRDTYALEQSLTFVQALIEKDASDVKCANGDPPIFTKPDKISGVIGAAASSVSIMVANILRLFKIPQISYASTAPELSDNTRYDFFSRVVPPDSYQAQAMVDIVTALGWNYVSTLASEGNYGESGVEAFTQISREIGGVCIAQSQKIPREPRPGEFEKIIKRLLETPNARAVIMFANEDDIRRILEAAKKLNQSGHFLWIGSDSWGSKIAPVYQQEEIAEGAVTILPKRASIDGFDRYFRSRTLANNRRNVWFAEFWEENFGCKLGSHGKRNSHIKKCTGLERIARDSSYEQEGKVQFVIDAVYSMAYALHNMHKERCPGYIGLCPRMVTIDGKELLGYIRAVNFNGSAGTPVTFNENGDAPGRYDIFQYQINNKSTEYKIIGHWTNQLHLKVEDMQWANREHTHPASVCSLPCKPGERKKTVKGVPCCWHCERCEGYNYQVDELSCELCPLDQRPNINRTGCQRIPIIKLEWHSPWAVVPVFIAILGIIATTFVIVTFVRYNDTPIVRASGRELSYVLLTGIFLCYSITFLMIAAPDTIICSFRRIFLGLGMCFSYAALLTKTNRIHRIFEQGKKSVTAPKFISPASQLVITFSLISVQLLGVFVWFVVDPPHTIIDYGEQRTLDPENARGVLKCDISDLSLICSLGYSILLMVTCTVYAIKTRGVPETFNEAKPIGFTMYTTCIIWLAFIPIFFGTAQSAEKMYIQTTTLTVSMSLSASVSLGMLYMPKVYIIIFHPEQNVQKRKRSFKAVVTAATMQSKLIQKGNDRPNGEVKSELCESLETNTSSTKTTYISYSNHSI
Take `O=C(CSc1ccc(-c2ccc(F)cc2)nn1)N1CCCc2ccccc21`: the z-score is -0.481. To `COC(=O)c1ccc(Cn2cnc3c(cnn3-c3ccc(C)c(C)c3)c2=O)o1` belongs -0.107; to `CCCS(=O)(=O)n1nc(-c2ccccc2)cc1N`, -0.138; to `S=C(NCCCc1ccccc1)Nc1ccc(Cl)cc1`, 0.355. With `Fc1ccc(-c2nc3n(n2)Cc2ccccc2-3)cc1` the figure was -0.577. With `COc1ccc(CNC(=O)CCNS(=O)(=O)c2ccc(C)cc2)cc1` the figure was -0.799; with `Cc1ccc(S(=O)(=O)/N=C2/C=C(Sc3ncn[nH]3)C(=O)c3ccccc32)cc1`, -0.0201.

In the case of `COc1ccccc1/C=C/CN1CCOCC1`, the z-score was -0.249. For `CCOC(=O)N1CCN(C(=O)CSc2nnc(-c3ccc(Cl)s3)o2)CC1`, the z-score worked out at 0.313.

Take `CSc1nnc(-c2ccccc2Cl)n1N`: the z-score was 0.421. To `COc1ccccc1OCC(=O)Nc1cc(S(=O)(=O)N2CCCCC2)ccc1N1CCCCC1` belongs -0.267; to `CC(CCc1ccccc1)NCc1ccncc1` (configuration not stated), 0.717; to `C/C(=N\OC(=O)c1ccccc1F)c1nccs1`, 0.257. With `O=C(Cn1cc(SCc2ccc(Cl)cc2)c2ccccc21)N1CCOCC1` the figure was -2.33; with `COc1ccccc1OCCSc1nc2ccccc2c(=O)[nH]1`, 0.235; with `O=[n+]1c2c(n([O-])c3c1CCCC3)CCCCC2`, -0.198. With `CC1CCCCN1CCNC(=O)C1CCN(S(=O)(=O)N2CCCCC2)CC1` (configuration not stated), the z-score was found to be 1.12. With `CCN(C(=O)CSc1nnc(Nc2cccc(C)c2C)s1)C1CCS(=O)(=O)C1` (configuration not stated) the figure was -0.226. To `S=C(Nc1ccc(Oc2ccccc2)cc1)NC1CCCCCC1` belongs 0.425; to `N#Cc1cc2c(nc1SCc1ccc(Cl)cc1)CCCC2`, -0.0506; to `COC(=O)C(O)(CC(=O)Nc1ccc(Cl)cc1Cl)C(F)(F)F` (configuration not stated), 0.0101.

`CC(NC(=O)c1ccc(-c2cc(C(F)(F)F)ccc2Cl)o1)c1ccccc1` (configuration not stated) showed a z-score of -0.132.

On to `O=C(CN1C(=O)c2cccc3cccc(c23)C1=O)N1CCCCCC1`, for which the z-score was determined as 0.175. Consider `COc1ccccc1NC(=O)CN1C(=O)NC(C)(C)C1=O`, for which the z-score amounted to 0.521. Molecule `Cc1ccc(C(=O)OCC(=O)c2c[nH]c3ccccc23)cc1` came in with a z-score of -0.02. With `CC(=O)c1ccc(OCCCC(=O)Nc2cc(S(=O)(=O)N(C)C)ccc2C)cc1` the figure was 0.264; with `O=C(NCc1cn(-c2ccccc2)nc1-c1ccc(F)cc1)c1cccc([N+](=O)[O-])c1`, -0.22. For the molecule `Oc1[nH]c2ccccc2c1N=Nc1ccccc1F`, the z-score was 0.0754.

`O=C(NCc1ccncc1)c1ccc(Cn2cc(C(F)(F)F)ccc2=O)cc1` gave a z-score of 0.175. To `CCOC(=O)c1ccccc1NC(=O)CSc1cccc[n+]1[O-]` belongs -0.181. With `CNC(=S)N/N=C/c1c(C)nn(-c2cccc(Cl)c2)c1Cl` the figure was -0.134. To `CC(C)c1ccccc1NC(=O)CCc1nc2ccccc2s1` belongs 0.873; to `Cc1nn(Cc2cccc(C(=O)Nn3cc([N+](=O)[O-])cn3)c2)c(C)c1[N+](=O)[O-]`, 0.801. Regarding `CCCCN(CC)C(=O)CN(C)S(=O)(=O)c1cccc2nsnc12`, the z-score was 1.11. To `O=C(Nc1ccc(Cl)cc1)ON=C1CCCC1` belongs 0.0813.

For `COc1cc(CNCCC2CCOC(C)(C)C2)ccc1O` (configuration not stated), the z-score is 0.188. To `FC(F)(F)c1cc(-c2ccco2)nc(NCc2ccc(Cl)cc2)n1` belongs 0.341; to `Cc1ccc(NCCC(=O)c2cccc([N+](=O)[O-])c2)c(C)c1`, -0.174; to `COC(=O)C1OC2(OC1C(=O)OC)c1ccccc1-c1ccccc12` (configuration not stated), -0.568. To `Cc1cccc(N2CN(Cc3ccco3)CNC2=S)c1C` belongs -2.05; to `CCOc1ccc(C(=O)CN2CCN(S(=O)(=O)c3ccc(Br)cc3)CC2)cc1`, active: 4.08; to `CN(NC(=O)c1ccccc1)c1nc2ccccc2nc1C(F)(F)F`, -0.409. `O=C(CC(c1ccccc1)C1CCCCC1=O)c1ccco1` (configuration not stated) returned a z-score of -0.327. With `O=c1c2ccccc2nc(SCc2ccc([N+](=O)[O-])cc2)n1CCCO` the figure was -0.224; with `CCOc1ccccc1-c1n[nH]c(=S)o1`, -0.00648; with `COc1cc2c(cc1OC)C(C(=O)NCCN1CCOCC1)C1c3ccccc3CCN1C2=O` (configuration not stated), -1.12. With `Cc1occc1C(=O)N=Nc1c(O)[nH]c2ccc(Br)cc12` the figure was -0.135; with `O=C(O)CCn1c(-c2ccccc2)cc2c1CCCC2=O`, 0.0696. With `O=[N+]([O-])c1ccc(N2CCN(S(=O)(=O)c3ccccc3)CC2)cc1NCc1cccnc1` the figure was -0.159. The molecule `Cc1nc(NC(=O)CC(C)C)sc1-c1csc(Nc2ccc(Cl)cc2Cl)n1` registered a z-score of 0.0283. To `COc1ccc(/C=C2\N=C(C)N(c3ccc4ccccc4c3)C2=O)cc1OC` belongs -0.712; to `COc1ccc(CN(C)CC(=O)c2c(N)n(Cc3ccccc3)c(=O)n(C)c2=O)c(OC)c1`, 1.36. With `Cc1ccc([N+](=O)[O-])cc1NC(=O)c1ccoc1C` the figure was -0.36. Turning to `CN1c2ccccc2C(O)=C(C(=O)Nc2ccccc2)S1(=O)=O`, the z-score was -0.291.

`O=C(COc1ccc(Cl)cc1)NCc1nnc(SCC(=O)Nc2ccccc2)o1` yielded a z-score of -0.219. To `Cc1cc(C)c[n+](CC(=O)c2ccc(-c3ccccc3)cc2)c1` belongs 0.0767; to `CS(=O)(=O)N1CCN(c2ccccc2NC(=O)c2ccc(Cl)cc2)CC1`, 0.216; to `Cc1cc(N(CN2CCCC2=O)C(=O)c2ccc(F)cc2)no1`, -0.111. To `CC(=O)NS(=O)(=O)c1ccc(NC(=O)c2cc(-c3cccs3)nc3ccccc23)cc1` belongs 0.183; to `Cn1c(=O)c2c(nc(NCc3ccco3)n2CCc2ccccc2)n(C)c1=O`, -0.121. With `O=C(O)CSCc1c(F)cccc1Cl` the figure was -0.658.

With `O=C(COc1cccc2ccccc12)NNC(=O)c1cccs1`, the z-score stood at 0.406. To `COc1ccc(C(=O)NC2CCN(C(=S)Nc3cc(C)ccc3C)CC2)cc1` belongs 0.0265; to `CCn1c(SCC(=O)NNC(=O)Cc2ccccc2)nnc1-c1ccccc1`, -0.123.

For `CCOc1ccc2nc(NC3=NC(c4ccc(OC)cc4)CC(=O)N3)nc(C)c2c1` (configuration not stated), the z-score came out at 0.0376. For the molecule `CCOC(=O)CSC1=NC(=O)/C(=C/c2ccc(OC)cc2)S1`, the z-score is -0.203.

The molecule `Cc1nnc(NC(=O)c2ccc(S(=O)(=O)N3CCCCCC3)cc2)o1` gave a z-score of -0.304.

`CC(C)Oc1cccc(C(=O)Nc2ccccc2N2CCOCC2)c1` returned a z-score of -0.964. With `CCc1nc2ccccc2n1CC(C)C(=O)O` (configuration not stated) the figure was -0.187; with `Cc1c(C#N)c2ccccc2n1CC(=O)NCc1cccnc1`, -0.39.

`CCN(CC)C(=S)Nc1ccc([N+](=O)[O-])cc1` displayed a z-score of 0.194. With `Nc1ccc2nc(-c3ccc(N)c(Cl)c3)[nH]c2c1` the figure was -0.784.
